The supplement of paper PMC10126150
Sequences with one replicate were seen in a single cluster, so their values are uncertain.

System: ATP
Test: switch fluorescence ratio, 500 uM ATP over buffer (Cy3 cluster intensity, sum of 5 cycles each) (fold (ratio)); higher = stronger signal-on switching upon ATP binding; sequences stand for … in TCGTCGGCAGCGTCAGATGTGTATAAGAGACAGTTTTTTTTTTTTTTTTTTTTTTTTT…TC
Details: aptamer strand: ATP DNA aptamer (quencher-CACCTGGGGGAGTATTGCGGAGGAAGG + anchor), 100 nM annealed; ATP concentration: 500 uM; one replicate
Summary of the method: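 Clusters with intensities outside 100-1000 RFU were excluded. The remaining Cy3-labelled switching-strand clusters on a modified Illumina MiSeq flow-cell had been annealed to 100 nM quencher-labelled ATP aptamer and imaged in selection buffer, then after 15 min with 500 uM ATP at 22 °C, for five cycles separated by NaOH stripping and re-annealing. The fluorescence ratio, averaged per switch-domain sequence, is each cluster's summed target-cycle Cy3 intensity over its summed buffer-cycle Cy3 intensity.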
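Also: ATP exposure 15 min at 22 °C before imaging.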

Sequence	switch fluorescence ratio
CTAGAGTTCT	0.982
TACTGCAGGG	1
AATTCATGAT	1.04
TATAGGCTG	1.03
AGATGGTTAG	1.02
ACTGAGTGGA	1.02
CGTATGTATT	0.995
AAAGGGTTT	1
TTGAGCCCTG	1.05
GCAGGAACCG	0.997
ACACTCTCAT	0.984
TTAGACTAGT	0.971
GCAGAGTAGT	0.989
GTGGCTACGA	0.983
CCTGACAGC	1.22
TGTTCTTCGG	1.01
CTACGTACCG	1.4
CTCTTTGCTG	0.97
GAGTTTTT	0.928
CTGGATCGG	1.02
TTAACTGTAT	1.08
ATACGTGAGC	1.04
AACCTCGTTA	1.03

Sequence	switch fluorescence ratio
TTAAACTTGG	1
CCTAGGAGGA	0.992
TTACGTTGCC	0.967
TGTACCGGC	1.04
TCGGGGCGCC	1.03
GCCGAGAAAG	0.994
GTTTGAAAGG	0.982
GTGAATTTTT	0.958
CACAAAGAAT	0.966
TGCCTGGGAG	0.971
AGAAATTGCG	0.961
TAATGCGAAG	1.01
ATTTCAGTTA	0.998
ATTGACCTGG	0.955
CAAAAGTAGG	1.02
GTAGTAGGG	0.973
TAATGATCCG	1.08
AGGACATTCT	0.989
TTACAGGCGG	0.991
ATTAAAAAT	1.36
CATGGGCCAA	1.02
TATGCTTTGC	0.975
TCGGGTTGTC	0.915

Sequence	switch fluorescence ratio
CTATGAACTA	0.993
TTCATCTATG	0.987
GAGCTTAGGT	1.01
ATACAAAACT	1.03
AAAGGCAAGC	1.15
CAGTTAGGGA	0.989
ATGAGCTCCA	1.02
TACGGAAAC	4.28
GGCCCTAGGG	0.996
GAGGCTCAAC	0.976
TGAAGTCAG	1.03
GAGTGCTTCG	1.04
CCTAGTTATA	1.06
AATGGAGGTT	0.963
GACAATCTTT	0.981
TTTATTGCC	1.01
TACCGGAAG	1.1
AAGTACGTCA	1.2
ATCTGATGCA	1.06
AGTGCCTAAG	1.01
TGGAGGAAAT	1.07
GTGTACTAAT	0.975
TGAGATGTTA	1.12

Sequence	switch fluorescence ratio
TCAGGTTGTA	0.994
TAAACAGTAA	1.01
TTATCAGACG	1.03
AATATAGTCG	0.938
TGGGATTGGA	1.01
GGAGTAGGTC	0.959
GTGAATTTGG	1.03
AACTCCGTTA	1.14
TAAAGGGTGA	1.04
GACGGGGAAC	1.05
AGGCCATGTA	0.996
AAATGAATA	1.26
ATGCCGCGTA	1.04
CCTGAAATC	1.27
CTCTACAGT	1.01
GTCTACCAAT	1.01
GTGTGTACTC	1.01
TTGAAAATTA	0.933
TGAATGCAGT	1.04
CTTTATGAAC	0.989
TTAATATTGA	1
TTACACCT	1.39
CTCAGTGCGA	1.2

Sequence	switch fluorescence ratio
TAGATGGGG	1.02
ACAATCAAGG	1.02
TGTGTCCGCC	1.15
AGTTGACATG	1
CCGTCCTCTA	1.31
GACCACATCG	1
TCGTCCGTTT	1.16
AATGTGATAT	0.953
GAAACTGTGG	1.12
ACTAGCTCAT	0.975
TATTTCGCCA	2.9
CTAATCGTCG	1.06
TAGTTTCTGC	1.02
ACTAAAGGA	1.02
ATGATATTAA	1
GAGCGAAGGG	0.997
CGGTTAAGA	0.997
CTCGCAGTAT	2.97
TTGTTACCAC	1.02
GTTGCCCATT	0.923
GGGATACTAC	1.13
CAGTTTCTGG	0.967
CACGCGCCTG	1.08

Sequence	switch fluorescence ratio
AAGCGGTAGT	0.954
AGCTTGATC	0.984
TCGATTCCGT	1.01
AGTGCACTT	0.998
GGGAATTCAA	0.99
TCCATAACAA	1.17
TATTTAGTGT	1.09
TTTTAACTGA	1.05
GCTTGACTGA	0.984
AAATTGTCAC	0.997
GATCCAAATG	0.982
AAGAGGTAA	0.985
CATGGATTTT	0.999
GTGTCGCGCA	1
TAAAAAGAAC	1.01
AGACATGGTA	1.03
TTCCACCTCT	1.02
CGAATTTCAT	0.978
CTCTAGATAG	2.82
AGCGACGTTG	0.97
GACTGTACCG	1.15
GTTCACCTCA	1.01
ATTATTGCGG	1.01

Sequence	switch fluorescence ratio
GGCTTTCTG	1.01
CTATTGTGCA	1.02
CGATGTTTGT	1
ATAACTCTTC	1.03
TCCATCTAAT	0.993
CTATATCAGG	1.08
AAAATGGCCG	0.984
CGGTTATGCA	1.03
GCCGTAACGA	1
TTAGAGCATA	1.94
TCTCAAAGTC	1.06
TAGAAACAAG	1.02
GGCCCGTCTT	1.11
GGTCTTGAAT	0.981
TTGTGTTGAC	1
ACCGTCATAG	1.26
TGGGGTTCG	1.02
GCGGCAGATG	0.997
AGCTGGGCCC	1.02
CCTAGCGGTA	1.34
